Data taken from PubChem BioAssay (Tox21).
Several values for one entry are separate records, joined by “and”; a condition that tells them apart may be missing. Equal entries are not always repeated. Inconclusive results, whose numbers are uncertain, are shown with a selection of clear calls. For some assays here: Potencies of inconclusive entries are doubtful fits and often do not repeat. Activity calls are given as the source filed them. Unless noted, the call rests on the fitted dose curve; in most records, active means well fitted curve in the direction sought with a large enough effect in the repeat runs; inconclusive means weak or mixed curves; inactive means no such curve, though single readings can be large; an effect the other way counts as inactive or inconclusive.

Key:
[1] = qHTS assay to identify small molecule agonists of the endoplasmic reticulum stress response signaling pathway - cell viability counter screen (AID 1159517; calls by dose curve; further: potency means the concentration at half of the fitted maximal effect; nearly all actives have a fitted effect of over 50% in size)
Summary of the method: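 HeLa cells carrying an ESRE-driven beta-lactamase reporter receive compound for 5 hr at 37 C. Cell viability is then gauged with CellTiter-Glo by luminescence, 30 min at room temperature.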

[2] = qHTS assay to identify small molecule antagonists of the retinoid-related orphan receptor gamma (ROR-gamma) signaling pathway - cell viability counter screen (AID 1159520); further: potency means the concentration at half of the fitted maximal effect; nearly all actives have a fitted effect of over 50% in size
Summary of the method: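 Cytotoxicity was read from cellular ATP (CellTiter-Glo luminescence) after 16 hr at 37 C with 1 uM doxycycline induction. The inducer was added 2 hr after compound transfer to Tet-on ROR gamma CHO cells.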

[3] = qHTS assay to identify small molecule agonists of the AP-1 signaling pathway - cell viability counter screen (AID 1159525; calls by dose curve; further: nearly all actives have a fitted effect of over 55% in size; further: potency means the concentration at half of the fitted maximal effect)
Summary of the method: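 Luminescent ATP readout (Cell Titer Glo, 30 min RT), normalised to DMSO and tetra n-octyl ammonium bromide controls. Cells were ME-180 AP-1-bla in 0.5% dialyzed FBS Opti-MEM, with a 5 h, 37 °C compound exposure.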

[4] = qHTS assay to identify small molecule agonists of the AP-1 signaling pathway (AID 1159526; calls by dose curve; further: potency means the concentration at half of the fitted maximal effect; on activation: on the % scale 0 is the no-effect control and ±100 the full control effect); settings: ME-180 (cervical carcinoma) AP-1-bla reporter, beta-lactamase FRET ratio, 5 h; activation: at 76.8 µM (top of the series) unless noted
[5] = molecular target: Retinoic acid receptor RXR-alpha (Homo sapiens) (UniProt P19793); experiment: qHTS assay to identify small molecule agonists of the RXR signaling pathway (AID 1159527; calls by dose curve; further: nearly all actives have a fitted effect of over 35% in size; further: potency means the concentration at half of the fitted maximal effect; on activation: on the % scale 0 is the no-effect control and ±100 the full control effect); settings: HEK293T RXRa-UAS-bla, beta-lactamase ratio, 16 h; activation: at 76.8 µM (top of the series) unless noted
Summary of the method: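 Read-out: beta-lactamase FRET ratio (405 nm excitation, 460 and 530 nm emission) after 2 hr substrate loading at room temperature. Cells were RXR-alpha-UAS-bla HEK 293T treated with compounds for 16 hr in 2% charcoal-stripped FBS medium.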

[6] = qHTS assay to identify small molecule agonists of the RXR signaling pathway - cell viability counter screen (AID 1159529); further: nearly all actives have a fitted effect of over 50% in size; further: potency means the concentration at half of the fitted maximal effect
Summary of the method: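 HEK 293T RXRa-bla cells, 2% CS-FBS; 5 h settle; cpd 16 h 37 C, 5% CO2; CellTiter-Glo 30 min RT, luminescence. Tetraoctyl ammonium bromide as positive control.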

[7] = qHTS assay to identify small molecule agonists of the retinoic acid receptor (RAR) signaling pathway (AID 1159553); settings: C3RL4 RARE luciferase reporter, agonist, 6 h; activation: at 73.3 µM (top of the series) unless noted; further: potency means the concentration at half of the fitted maximal effect; on activation: on the % scale 0 is the no-effect control and ±100 the full control effect
Summary of the method: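 C3RL4 RARE-luciferase cells were seeded at 1,000/well and grown overnight at 37 C, then exposed to compounds for 6 hr at 37 C, 5% CO2. Luciferase reagent was added and luminescence was read after 30 min at room temperature.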

[8] = qHTS assay to identify small molecule antagonists of the estrogen related receptor (ERR) signaling pathway from Tox21 library - cell viability counter screen (AID 1224834); further: potency means the concentration at half of the fitted maximal effect; nearly all actives have a fitted effect of over 30% in size
Summary of the method: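 ERR reporter cells, 2,000 per well, rested 6 h, then exposed to compound in DMSO for 17.5 hours at 37 C. Viability read as fluorescence after 30 min with CellTiter-Fluor.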

[9] = qHTS assay to identify small molecule agonists of the constitutive androstane receptor (CAR) signaling pathway - cell viability counter screen (AID 1224836); further: potency means the concentration at half of the fitted maximal effect; nearly all actives have a fitted effect of over 45% in size
Summary of the method: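 HepG2-CYP2B6-hCAR, 2500 cells/well, 4 h pre-incubation; cpd 15 conc + PK11195 0.75 uM final; 23 h, 37 C/5% CO2; CellTiter-Fluor, fluorescence.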

[10] = qHTS assay to identify small molecule antagonists of the constitutive androstane receptor (CAR) signaling pathway - cell viability counter screen (AID 1224837); further: nearly all actives have a fitted effect of over 45% in size; further: potency means the concentration at half of the fitted maximal effect
Summary of the method: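 HepG2 cells stably carrying hCAR and CYP2B6-2.2kb reporter, stimulated with 50 nM CITCO and compounds at 15 concentrations for 23 h at 37 C. Viability measured by CellTiter-Fluor fluorescence.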

[11] = molecular target: Luciferin 4-monooxygenase (Photinus pyralis) (UniProt P08659); experiment: qHTS assay to identify small molecule inhibitors of firefly luciferase (AID 1224835); further: potency means the concentration at half of the fitted maximal effect; nearly all actives have a fitted effect of over 25% in size
Summary of the method: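 Inhibition of purified Photinus luciferase is measured by luminescence. Substrate levels (D-luciferin, ATP) sit at their KM values. Each compound is tested in a concentration series.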

[12] = qHTS assay to identify small molecule antagonists of the retinoic acid receptor (RAR) signaling pathway (AID 1159552; further: potency means the concentration at half of the fitted maximal effect; nearly all actives have a fitted effect of over 50% in size)
Summary of the method: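 Cells of the C3RL4 line were seeded, incubated overnight, then dosed with compounds in DMSO followed immediately by retinol (1 uM final). Six hours later luciferase detection reagent went in; signal was measured after 30 min at RT.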

[13] = system: estrogen-related receptor alpha (ERRalpha) with PGC-1alpha coactivator, human; experiment: qHTS assay to identify small molecule antagonists of the estrogen related receptor signaling pathway with the pleiotropic PPARgamma coactivator (PGC) (AID 1224821; calls by dose curve)
Summary of the method: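 Luminescent read-out (One-Glo, 30 min at room temperature) following 18 h treatment of PGC/ERR cells at 37 C with compounds delivered in DMSO. Cells had settled 6 h at 37 C/5% CO2 before dosing.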

[14] = qHTS assay to identify small molecule antagonists of the retinoid acid receptor (RAR) signaling pathway - cell viability counter screen (AID 1159551); further: potency means the concentration at half of the fitted maximal effect; nearly all actives have a fitted effect of over 35% in size
Summary of the method: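 C3RL4 RARE-luciferase cells, 1,000/well, incubated overnight, then dosed with compound plus 1 uM retinol (final). After 6 hr at 37 C, viability read by CellTiter-Glo ATP luminescence following 30 min at room temperature.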

[15] = qHTS assay to identify small molecule antagonists of the estrogen related receptor (ERR) signaling pathway - cell viability counter screen (AID 1224818);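 further: potency means the concentration at half of the fitted maximal effect; viability measured after 17.5 h of compound exposure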
Summary of the method: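 ERR cells, 2,000 per well, compound added after 6 h and incubated 17.5 h at 37 C. Viability read by CellTiter-Fluor fluorescence after a further 30 min at 37 C.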

[16] = qHTS assay to identify small molecule antagonists of the estrogen related receptor (ERR) signaling pathway (AID 1224819)
Summary of the method: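 ERR reporter cell line (NTP) plated at 2,000 cells/well, settled 6 h at 37C/5% CO2, then exposed to LOPAC compounds for 18 h at 37C. One-Glo luciferase luminescence read after 30 min at room temperature.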
Tags describe the fitted curve by direction and shape or compound fluorescence and quenching.

Chain of UniProt P19793 (P19793 whole entry, looked up): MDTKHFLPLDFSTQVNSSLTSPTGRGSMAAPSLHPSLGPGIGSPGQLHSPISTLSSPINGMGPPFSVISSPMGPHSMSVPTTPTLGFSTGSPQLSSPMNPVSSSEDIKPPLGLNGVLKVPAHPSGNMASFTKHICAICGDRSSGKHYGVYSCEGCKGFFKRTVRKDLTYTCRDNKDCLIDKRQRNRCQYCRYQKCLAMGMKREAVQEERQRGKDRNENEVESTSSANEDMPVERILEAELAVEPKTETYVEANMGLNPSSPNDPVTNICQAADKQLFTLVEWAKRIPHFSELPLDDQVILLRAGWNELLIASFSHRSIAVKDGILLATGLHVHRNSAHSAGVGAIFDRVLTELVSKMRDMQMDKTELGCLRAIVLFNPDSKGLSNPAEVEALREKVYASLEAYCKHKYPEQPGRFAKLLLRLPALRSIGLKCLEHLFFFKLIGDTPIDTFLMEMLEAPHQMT
Chain of UniProt P08659 (P08659 whole entry, looked up): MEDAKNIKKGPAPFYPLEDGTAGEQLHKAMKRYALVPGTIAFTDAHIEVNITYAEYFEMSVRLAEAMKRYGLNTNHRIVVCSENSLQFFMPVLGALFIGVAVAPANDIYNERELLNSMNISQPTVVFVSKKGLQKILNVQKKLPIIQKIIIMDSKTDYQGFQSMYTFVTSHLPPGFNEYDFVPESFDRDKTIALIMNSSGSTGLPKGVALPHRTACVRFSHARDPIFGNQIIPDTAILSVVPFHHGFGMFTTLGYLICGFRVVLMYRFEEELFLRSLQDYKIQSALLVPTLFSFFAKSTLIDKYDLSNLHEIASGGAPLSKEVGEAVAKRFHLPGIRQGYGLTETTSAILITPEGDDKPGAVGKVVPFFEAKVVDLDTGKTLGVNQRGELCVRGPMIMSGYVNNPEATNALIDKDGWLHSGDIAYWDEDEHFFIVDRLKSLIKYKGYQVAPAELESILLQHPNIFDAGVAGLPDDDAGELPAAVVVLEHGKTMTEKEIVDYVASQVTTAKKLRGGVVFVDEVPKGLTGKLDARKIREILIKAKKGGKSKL

N#CCCC(Br)(C#N)CBr (centres undefined)
Potency [1]: inconclusive: 24.5 µM [cytotoxic, single point]
Potency [2]: active: 19.3 µM
Potency [3]: inconclusive: 61.6 µM [cytotoxic, single point]
Potency [4]: inconclusive: 54.9 µM [cytotoxic, single point]
Potency [5]: inconclusive: 21.9 µM [rising, full curve]
Potency [6]: active: 38.9 µM
Potency [7]: inconclusive: 15.4 µM [inhibitor]
Potency [8]: inconclusive: 68.6 µM [cytotoxic, single point]
Potency [9]: inconclusive: 68.6 µM [cytotoxic, single point]
Potency [10]: active: 61.1 µM

CCCCCCCc1ccc(O)cc1
Potency [1]: inconclusive: 61.7 µM [cytotoxic, single point]
Potency [2]: inconclusive: 43.3 µM [cytotoxic, partial curve, poor fit]
Potency [4]: inconclusive: 43.6 µM [cytotoxic, partial curve]
activation [5]: inconclusive: -14.9%
Potency [6]: inconclusive: 21.9 µM [cytotoxic, full curve]
Potency [7]: active: 8.63 µM
Potency [8]: inconclusive: 48.6 µM [cytotoxic, partial curve]
Potency [11]: inconclusive: 35.6 µM [inhibitor, partial curve]

CCOP(=S)(OCC)OC(Cl)C(Cl)(Cl)Cl (centres undefined)
Potency [1]: inconclusive: 54.9 µM [cytotoxic, single point]
Potency [2]: inconclusive: 77 µM [cytotoxic, partial curve, poor fit]
activation [4]: inconclusive: 19.2%
Potency [5]: inactive
Potency [11]: inconclusive: 71 µM [inhibitor, single point]

Oc1cc(Cl)c(Cl)c(Cl)c1
Potency [1]: inconclusive: 41.4 µM [cytotoxic]
Potency [2]: inconclusive: 46.1 µM [cytotoxic, partial curve]
Potency [3]: inconclusive: 52.1 µM [cytotoxic, single point]
Potency [4]: inconclusive: 52.1 µM
Potency [5]: inconclusive: 11.7 µM [inhibitor, partial curve, poor fit]
Potency [6]: inconclusive: 8.26 µM [cytotoxic, partial curve]
Potency [12]: inconclusive: 65 µM [inhibitor, single point]
Potency [7]: inconclusive: 65 µM [inhibitor, partial curve, poor fit]
Potency [8]: inconclusive: 73 µM [cytotoxic, single point]
Potency [9]: inconclusive: 65 µM [cytotoxic, single point]
Potency [10]: inconclusive: 65 µM [cytotoxic, single point]

CCC[CH2][Sn]([CH2]CCC)([CH2]CCC)[O]C(=O)c1ccccc1
Potency [1]: active: 4.9 µM
Potency [2]: active: 0.686 µM
Potency [4]: inconclusive: 0.692 µM [falling, full curve]
Potency [5]: inconclusive: 6.92 µM [falling, full curve]
Potency [6]: active: 1.23 µM
Potency [7]: inconclusive: 2.43 µM [inhibitor, full curve]
Potency [8]: active: 2.17 µM
Potency [9]: active: 0.77 µM

O=C(Nc1ccccc1-c1ccc(Cl)cc1)c1cccnc1Cl
Potency [1]: inconclusive: 10.4 µM [rising, partial curve, poor fit]
Potency [2]: inconclusive: 11.5 µM [cytotoxic, full curve]
Potency [4]: inconclusive: 54.9 µM [activator, partial curve, poor fit]
Potency [5]: inconclusive: 4.63 µM [rising, full curve, poor fit]
Potency [6]: inconclusive: 36.8 µM [cytotoxic]
Potency [7]: inactive
Potency [13]: inactive
Potency [8]: inconclusive: 57.8 µM [cytotoxic]
Potency [11]: inconclusive: 89.4 µM [inhibitor, partial curve, poor fit]

O=c1ssc(Cl)c1Cl
Potency [1]: inconclusive: 54.9 µM [cytotoxic]
Potency [2]: active: 15.4 µM
Potency [3]: inconclusive: 61.6 µM [cytotoxic, single point]
Potency [4]: inconclusive: 49 µM [falling, partial curve]
activation [5]: inconclusive: -23.6%
Potency [14]: active: 68.6 µM
Potency [12]: active: 61.1 µM
activation [7]: inconclusive: 9.91% [phenotype inactive]
Potency [8]: inconclusive: 61.1 µM [cytotoxic, single point]

COc1cc(OC)c(OC)cc1C=O
Potency [1]: inconclusive: 23.8 µM [rising, full curve, poor fit]
Potency [2]: inconclusive: 7.46 µM [cytotoxic, partial curve, poor fit]
Potency [4]: inconclusive: 42.3 µM [cytotoxic, partial curve, poor fit]
Potency [5]: inconclusive: 59.8 µM
Potency [6]: inactive

c1ccc(Nc2ccc3ccccc3c2)cc1
Potency [1]: inconclusive: 54.9 µM [cytotoxic]
Potency [2]: inconclusive: 60.8 µM [cytotoxic, partial curve] and inconclusive: 61.1 µM [cytotoxic, partial curve, poor fit]
Potency [3]: inconclusive: 54.9 µM [cytotoxic]
Potency [5]: inconclusive: 3.89 µM [inhibitor, partial curve, poor fit]
Potency [6]: inconclusive: 49 µM [cytotoxic]
Potency [14]: inconclusive: 54.2 µM [cytotoxic, partial curve] and inconclusive: 43.3 µM [cytotoxic, partial curve]
Potency [7]: active: 3.05 µM and active: 8.63 µM
Potency [8]: inconclusive: 68.2 µM [cytotoxic, single point]
Potency [10]: inactive

ClC1=C(Cl)C2(Cl)C3C(Cl)C=CC3C1(Cl)C2(Cl)Cl (centres undefined)
Potency [1]: active: 55.2 µM and inconclusive: 54.9 µM [cytotoxic, single point]
Potency [2]: inconclusive: 68.6 µM [cytotoxic, single point]
Potency [3]: inconclusive: 49 µM [cytotoxic, partial curve, poor fit]
Potency [4]: inconclusive: 39.1 µM [falling, partial curve] and inconclusive: 49 µM [falling, partial curve]
Potency [5]: inconclusive: 13.9 µM [inhibitor, partial curve, poor fit] and inconclusive: 24.5 µM [inhibitor, single point]
Potency [6]: inconclusive: 55.2 µM [cytotoxic, single point] and active: 34.7 µM
Potency [12]: inconclusive: 61.4 µM [inhibitor]
Potency [7]: inconclusive: 68.6 µM [inhibitor, single point]
Potency [8]: inconclusive: 68.9 µM [cytotoxic, single point]

OC(c1ccc(Cl)cc1)(c1ccc(Cl)cc1)C(Cl)(Cl)Cl
Potency [1]: inconclusive: 54.9 µM [cytotoxic]
Potency [2]: active: 61.1 µM
Potency [4]: inconclusive: 24.5 µM [activator, partial curve]
activation [5]: inconclusive: -40%

C[C@H]1CC[C@@H]2[C@@H](C)[C@H]3[C@H](C[C@H]4[C@@H]5CC=C6CC(O[C@@H]7O[C@H](CO)[C@H](O)[C@H](O[C@@H]8O[C@H](CO)[C@@H](O)[C@H](O)[C@H]8O)[C@H]7O[C@H]7O[C@@H](C)[C@H](O)[C@@H](O)[C@H]7O)CC[C@]6(C)[C@H]5CC[C@]34C)N2C1 (some centres undefined)
Potency [1]: inconclusive: 63.7 µM [cytotoxic]
Potency [2]: active: 28.2 µM
Potency [3]: active: 20.1 µM
Potency [4]: inconclusive: 12.7 µM
activation [5]: inconclusive: -8.98%
Potency [14]: active: 25.1 µM
Potency [12]: active: 28.2 µM
Potency [9]: active: 22.4 µM

CCC[CH2][Sn]([Cl])([CH2]CCC)[CH2]CCC
Potency [1]: active: 1.74 µM and active: 3.09 µM
Potency [2]: active: 1.54 µM and active: 1.72 µM
Potency [4]: inconclusive: 618 nM and inconclusive: 1.55 µM [cytotoxic, full curve]
Potency [6]: active: 1.1 µM
Potency [14]: active: 3.86 µM and active: 8.63 µM
Potency [9]: active: 546 nM and active: 545 nM
Potency [10]: active: 1.54 µM and active: 686 nM

O=C(CCl)CCl
Potency [1]: inconclusive: 63.9 µM [cytotoxic, single point] and active: 43.6 µM
Potency [2]: inconclusive: 28.3 µM [cytotoxic, partial curve, poor fit]
Potency [3]: inactive
Potency [5]: inactive
Potency [10]: inactive

Nc1ccc([N+](=O)[O-])cc1
Potency [1]: inconclusive: 54.9 µM [cytotoxic, single point]
Potency [2]: inconclusive: 61.1 µM [cytotoxic, partial curve, poor fit]
Potency [3]: active: 38.9 µM
Potency [4]: inconclusive: 34.7 µM [cytotoxic, partial curve]
Potency [5]: inconclusive: 38.9 µM [falling, partial curve, poor fit]
Potency [6]: inconclusive: 34.7 µM [cytotoxic, partial curve, poor fit]
Potency [14]: inconclusive: 48.6 µM [cytotoxic, partial curve, poor fit]
Potency [15]: inconclusive: 20.1 µM [cytotoxic]
Potency [16]: inconclusive: 5.88 µM [inhibitor]
Potency [8]: active: 15.4 µM
Potency [11]: inconclusive: 89.4 µM [inhibitor, partial curve, poor fit]
Potency [9]: inconclusive: 27.3 µM [cytotoxic, partial curve]
